Experimental findings from PubChem BioAssay AID1745853 (National Center for Advancing Translational Sciences (NCATS), 2022) are described below.

Where “and” joins values, the source holds several entries; their conditions need not be identical. Identical values can stand only once. The list shows a part of the results. Further columns of the screen follow, without active or inactive calls.

What all share (assay): Primary Screen for Target Class Profiling of Small Molecule Inhibitors of Methyltransferases
Assay [1] deals with Glycine N-methyltransferase (Homo sapiens) (UniProt Q14749). To be noted: purified enzyme, MTase-Glo SAH luminescence; measured here: GNMT inhibition; at 40 µM; stronger effect = lower value. The procedure, abridged:
(§1)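 Each enzyme was reacted with SAM and its substrate, with compounds tested once at 40 uM; SAH formed was read by MTase-Glo luminescence.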

Assay [2] concerns the target Guanidinoacetate N-methyltransferase (Homo sapiens) (UniProt Q14353). To be noted: purified enzyme, MTase-Glo SAH luminescence; measured here: GAMT inhibition; at 40 µM; stronger effect = lower value. The procedure, abridged: as §1
For assay [3], the target named is Histamine N-methyltransferase (Homo sapiens) (UniProt P50135). Particulars: purified enzyme, MTase-Glo SAH luminescence; measured here: HNMT inhibition; at 40 µM; stronger effect = lower value. The procedure, abridged: as §1
The target of assay [4] is Nicotinamide N-methyltransferase (Homo sapiens) (UniProt P40261). Particulars: purified enzyme, MTase-Glo SAH luminescence; measured here: NNMT inhibition; at 40 µM; stronger effect = lower value. The procedure, abridged:
as §1

For assay [5], the target named is Phenylethanolamine N-methyltransferase (Homo sapiens) (UniProt P11086). Particulars: purified enzyme, MTase-Glo SAH luminescence; measured here: PNMT inhibition; at 40 µM; stronger effect = lower value. The procedure, abridged:
as §1
% is scaled to controls: 0 for no effect and ±100 for the full control effect.

As for `CC(C)NC(=O)NC[C@H]1C[C@@H]2CCN1C[C@@H]2CN1CCC(Cc2ccccc2)CC1`, the activity change, negative = inhibition in assay [1] was -1.37%; in assay [2], -5.27%; in assay [3], -20.4%; in assay [4] it was -10.9%; in assay [5], 6.29%.

Consider `O=C(NCCc1ccccc1)N1Cc2ccccc2-n2cccc2C1c1ccc(F)cc1` (stereo not given), for which the activity change, negative = inhibition in assay [1] was -2.28%; in assay [2], -1.85%; in assay [3] it was -5.6%; in assay [4], -8.47%; in assay [5], -2.65%.

For `CCOc1ccccc1NC(=O)N1Cc2ccccc2-n2cccc2C1CC` (stereo not given), the activity change, negative = inhibition in assay [1] was -22.8%; in assay [2] it was 1.85%; in assay [3], 0.698%; in assay [4], -2.53%; in assay [5], 2.23%.

As for `CCOC(=O)c1cccc(NC(=O)N2Cc3ccccc3-n3cccc3C2c2ccc(OC)cc2)c1` (stereo not given), the activity change, negative = inhibition in assay [1] is 8.27%; in assay [2] it was 2.21%; in assay [3] it was 1.5%; in assay [4], -2.19%; in assay [5], 1.71%.

As to `Cc1cccc(NC(=O)N2Cc3ccccc3-n3cccc3C2c2ccc(Cl)cc2)c1` (stereo not given), the activity change, negative = inhibition in assay [1] is -0.355%; in assay [2] it was 3.02%; in assay [3] it was 9.2%; in assay [4] it was 5.8%; in assay [5] it was 10.8%.

In the case of `Cc1sc2c(c1C)C(c1ccc(Cl)cc1)=N[C@@H](CC(=O)OC(C)(C)C)c1nnc(C)n1-2`, the activity change, negative = inhibition in assay [1] was -6.16%; in assay [2] it was 5.81%; in assay [3], 8.84%; in assay [4], -34.1% and -40.7%; in assay [5], 11.6% and -1.62%.

In the case of `O=C1NCCCCCCN[C@H]2CCC[C@@H]12`, the activity change, negative = inhibition in assay [1] was -0.786%; in assay [2] it was 1.07%; in assay [3] it was 1.02%; in assay [4], 2.38%; in assay [5] it was 1.97%.

`C[C@@H](CN1CCC(n2c(=O)[nH]c3cc(Br)ccc32)CC1)NC(=O)[C@@H]1C[C@H]1c1ccccc1`: the activity change, negative = inhibition was -2.83% in assay [1]; -2.78% in assay [2]; -3.59% in assay [3]; -23.3% in assay [4]; -7.64% in assay [5].

On to `Cc1ccc(Cl)cc1NC(=O)N1Cc2ccccc2-n2cccc2C1c1ccc(N(C)C)cc1` (stereo not given), for which the activity change, negative = inhibition was 7.63% in assay [1]; 0% in assay [2]; 2.08% in assay [3]; 4.6% in assay [4]; 5.23% in assay [5].

Turning to `CCc1ccc(C2c3cccn3-c3ccccc3CN2C(=O)Nc2cccc(OC)c2)cc1` (stereo not given), the activity change, negative = inhibition in assay [1] was 2.9%; in assay [2] it was 5.59%; in assay [3], -5.14%; in assay [4], -2.83%; in assay [5], 2.38%.

For the compound `CC(=O)c1ccc(NC(=O)OC[C@H]2C[C@@H]3CCN2C[C@@H]3c2cc(-c3cccs3)nn2C)cc1`, the activity change, negative = inhibition in assay [1] was -6.54%; in assay [2] it was -10.7%; in assay [3], -8.1%; in assay [4], -8%; in assay [5], -4.65%.

With `COc1ccc(C2c3cccn3-c3ccccc3CN2C(=O)Nc2cccc(C)c2)cc1OC` (stereo not given), the activity change, negative = inhibition worked out at 15.7% in assay [1]; 3.37% in assay [2]; 9.38% in assay [3]; 9.96% in assay [4]; 9.2% in assay [5].

Turning to `COc1ccc(NC(=O)N2Cc3ccccc3-n3cccc3C2c2ccc(OC)c(OC)c2)cc1` (stereo not given), the activity change, negative = inhibition in assay [1] is 7.66%; in assay [2] it was 3.29%; in assay [3], 3.43%; in assay [4], -0.633%; in assay [5], 6.14%.

In the case of `COc1cccc(CNC(=O)N2Cc3ccccc3-n3cccc3C2c2ccc(C(C)C)cc2)c1` (stereo not given), the activity change, negative = inhibition is -3.35% in assay [1]; 4.85% in assay [2]; 1.55% in assay [3]; -0.871% in assay [4]; -1.47% in assay [5].

As for `CCOc1ccc(C2c3cccn3-c3ccccc3CN2C(=O)Nc2cc(F)ccc2F)cc1` (stereo not given), the activity change, negative = inhibition was -5.32% in assay [1]; 1.14% in assay [2]; -2.35% in assay [3]; -5.17% in assay [4]; -2.1% in assay [5].

With `CCC1c2cccn2-c2ccccc2CN1C(=O)Nc1cccc(SC)c1` (stereo not given), the activity change, negative = inhibition was 4.17% in assay [1]; -1.3% in assay [2]; -2.05% in assay [3]; -5.25% in assay [4]; -1.83% in assay [5].

Take `Cc1c(N[C@@H](c2nnc(-c3ccc(C#N)cc3)o2)[C@H](C)O)ccc(C#N)c1Cl`: the activity change, negative = inhibition in assay [1] is 2.56%; in assay [2] it was 11%; in assay [3] it was 1.34%; in assay [4], -16.7%; in assay [5], 2.22%.

Consider `COc1ccccc1NC(=O)N1Cc2ccccc2-n2cccc2C1c1ccc(F)cc1` (stereo not given), for which the activity change, negative = inhibition is -3.36% in assay [1]; 1.08% in assay [2]; 7.07% in assay [3]; 6.68% in assay [4]; 8.35% in assay [5].

On to `CCC1c2cccn2-c2ccccc2CN1C(=O)Nc1cc(C)cc(C)c1` (stereo not given), for which the activity change, negative = inhibition in assay [1] is 4.18%; in assay [2] it was 3.62%; in assay [3], 6.85%; in assay [4], 8.09%; in assay [5] it was 11.7%.

On to `COCc1cn(C[C@H]2C[C@@H]3CCN2C[C@@H]3C(=O)NCc2ccco2)nn1`, for which the activity change, negative = inhibition was -2.67% in assay [1]; -6.34% in assay [2]; 0.31% in assay [3]; -4.35% in assay [4]; -0.027% in assay [5].

On to `Cc1ccc(NC(=O)N2Cc3ccccc3-n3cccc3C2C(C)C)cc1C` (stereo not given), for which the activity change, negative = inhibition in assay [1] is -4.39%; in assay [2], 0.676%; in assay [3], -1.79%; in assay [4] it was -4.88%; in assay [5], -3.57%.

Turning to `CCOc1ccccc1NC(=O)N1Cc2c(C)cc(C)nc2-n2cccc2C1c1ccc(F)cc1` (stereo not given), the activity change, negative = inhibition is -1.3% in assay [1]; 3.91% in assay [2]; 3.98% in assay [3]; -0.387% in assay [4]; -2.51% in assay [5].

On to `Cc1ccc(CNC(=O)N2Cc3ccccc3-n3cccc3C2c2ccc(N(C)C)cc2)cc1` (stereo not given), for which the activity change, negative = inhibition in assay [1] amounted to 12.9%; in assay [2], 2.63%; in assay [3], 6.02%; in assay [4], 11%; in assay [5], 11.1%.

As for `Cc1cccc(C2c3cccn3-c3ccccc3CN2C(=O)Nc2ccccc2)c1` (stereo not given), the activity change, negative = inhibition is 13.4% in assay [1]; 0% in assay [2]; 3.74% in assay [3]; 4.47% in assay [4]; 5.53% in assay [5].

Consider `Cc1cc(C)cc(NC(=O)N2Cc3ccccc3-n3cccc3C2c2cccc(C)c2)c1` (stereo not given), for which the activity change, negative = inhibition in assay [1] is 8.18%; in assay [2] it was -1.55%; in assay [3], 3.58%; in assay [4], -6.92%; in assay [5], 0.577%.

For `CN1C(=O)C(Cc2ccc3ccccc3c2)N=C(c2ccc(O)cc2)c2cc(Cl)ccc21` (stereo not given), the activity change, negative = inhibition in assay [1] was 4.16%; in assay [2] it was -3.4%; in assay [3], 9.32%; in assay [4], -27.8%; in assay [5], -1.27%.

For `COc1ccc(C2c3cccn3-c3ccccc3CN2C(=O)Nc2cc(F)ccc2F)cc1` (stereo not given), the activity change, negative = inhibition in assay [1] is 7.47%; in assay [2], 0%; in assay [3], 1.38%; in assay [4], -1.83%; in assay [5], 5.19%.

For the compound `O=C(Nc1ccccc1)C1=NO[C@@H]2CN(Cc3ccccn3)C[C@H]12`, the activity change, negative = inhibition in assay [1] is -3.31%; in assay [2], -2.28%; in assay [3], -2.89%; in assay [4], -2.65%; in assay [5], -4.39%.

For the compound `CCOC(=O)C1CCC(CNC(=O)N2Cc3ccccc3-n3cccc3C2C)CC1` (stereo not given), the activity change, negative = inhibition was 8.82% in assay [1]; 1.8% in assay [2]; 0.97% in assay [3]; -6.44% in assay [4]; 5.89% in assay [5].

As to `CCOc1ccc(C2c3cccn3-c3ccccc3CN2C(=O)Nc2cccc(C)c2C)cc1` (stereo not given), the activity change, negative = inhibition in assay [1] is -4.76%; in assay [2], 2.72%; in assay [3], -8.93%; in assay [4] it was -8.52%; in assay [5] it was -6.39%.
